# Reference: PubChem BioAssay AID504332 (National Center for Advancing Translational Sciences (NCATS), 2011)
# The whole screen tested about 350,000 compounds, of which about 31,000 (8.9%) were called active. The shares of active, inactive and inconclusive entries below differ from those in the screen. The call rests on the fitted dose curve; in most records, active means well fitted inhibition curve with a large enough effect; inconclusive means small, poorly fitted or top-dose-only effect; inactive means no such curve, though single readings can be large or run the other way. A potency beside an inconclusive call is a rough fit, not a confirmed value.
# Biological target: Histone-lysine N-methyltransferase EHMT2 (Homo sapiens) (UniProt Q96KQ7)
# Test: qHTS Assay for Inhibitors of Histone Lysine Methyltransferase G9a; further: nearly all actives have a fitted effect of over 75% in size
# Details: G9a H3K9 monomethylation, AlphaScreen, 2 h; activity, negative = inhibition: at 59 µM (top of the series) unless noted
# In short: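 G9a (20 nM) preincubated 15 min RT with compounds, then 500 nM biotinylated H3K9 peptide and 20 uM SAM added; 2 h RT reaction. Monomethyl-H3K9 product detected by AlphaScreen with anti-H3K9me1 antibody, streptavidin donor and anti-rabbit IgG acceptor beads.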
# On the % scale 0 is the no-effect control and ±100 the full control effect; potency means the concentration at half of the fitted maximal effect; tags describe the fitted curve by direction and shape.
# UniProt Q96KQ7, sequence (Q96KQ7 whole entry, looked up): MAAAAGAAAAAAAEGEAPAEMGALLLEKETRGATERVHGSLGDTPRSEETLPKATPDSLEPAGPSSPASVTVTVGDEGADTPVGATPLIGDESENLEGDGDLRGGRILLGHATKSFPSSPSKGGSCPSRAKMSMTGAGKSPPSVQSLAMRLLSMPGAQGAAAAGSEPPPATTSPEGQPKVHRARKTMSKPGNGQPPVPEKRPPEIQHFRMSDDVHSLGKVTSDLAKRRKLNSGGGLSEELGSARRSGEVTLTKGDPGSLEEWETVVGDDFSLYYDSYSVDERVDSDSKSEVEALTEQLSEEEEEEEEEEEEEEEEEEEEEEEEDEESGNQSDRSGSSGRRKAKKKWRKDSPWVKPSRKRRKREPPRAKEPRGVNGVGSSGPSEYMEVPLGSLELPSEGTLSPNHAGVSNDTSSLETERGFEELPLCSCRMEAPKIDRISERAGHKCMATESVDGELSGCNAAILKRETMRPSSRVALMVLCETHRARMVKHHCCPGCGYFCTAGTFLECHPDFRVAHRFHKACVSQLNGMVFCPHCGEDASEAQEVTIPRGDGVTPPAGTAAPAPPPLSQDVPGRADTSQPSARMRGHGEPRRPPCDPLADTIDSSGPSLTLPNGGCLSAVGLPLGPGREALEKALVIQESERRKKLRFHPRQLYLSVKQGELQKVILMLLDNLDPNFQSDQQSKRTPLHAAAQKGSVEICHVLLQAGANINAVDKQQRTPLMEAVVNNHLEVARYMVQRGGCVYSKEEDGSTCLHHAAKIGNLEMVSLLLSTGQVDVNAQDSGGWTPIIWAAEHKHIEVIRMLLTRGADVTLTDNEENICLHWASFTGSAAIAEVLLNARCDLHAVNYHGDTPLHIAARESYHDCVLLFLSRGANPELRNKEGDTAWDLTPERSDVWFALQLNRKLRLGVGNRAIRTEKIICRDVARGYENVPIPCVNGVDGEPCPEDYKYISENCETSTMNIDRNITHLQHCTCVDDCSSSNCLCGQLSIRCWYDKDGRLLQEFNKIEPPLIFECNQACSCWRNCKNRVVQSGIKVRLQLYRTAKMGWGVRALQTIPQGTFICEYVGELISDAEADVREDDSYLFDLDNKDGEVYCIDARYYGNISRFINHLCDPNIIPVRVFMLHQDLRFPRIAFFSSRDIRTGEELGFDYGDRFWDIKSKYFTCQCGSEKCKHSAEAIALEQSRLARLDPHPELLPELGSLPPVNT
SMILES,"activity, negative = inhibition",Potency
O=C(CCCCCn1c(=O)c2sccc2n(Cc2ccccc2Cl)c1=O)NCc1ccc2c(c1)OCO2,inactive: 2.17%,
COc1cc(N/C=C2\CC(=O)NC(C)=C2C#N)cc(OC)c1OC,,"inconclusive: 56.2 µM [inhibitor, partial curve]"
Cc1cc(C(=O)N2CCN(S(=O)(=O)c3ccccc3C#N)CC2)c(C)o1,inactive: 15% [at 2.33 µM],
Cc1noc(C)c1C(=O)NNc1ccc(C(C)C)cc1,,"inconclusive: 2.82 µM [inhibitor, full curve, poor fit]"
Cc1ccc(NC(=O)C2CC(=O)Nc3ncnn32)c(C)c1 (configuration not stated),inconclusive: -63.3% [inhibitor],
O=C(C1CCCN(C2CC(=O)N(c3ccc(Cl)cc3)C2=O)C1)N1CCCC1 (configuration not stated),,active: 79.4 µM
COc1ccccc1-c1nccc(NCc2ccccc2)n1,inactive: 0.872% [at 0.501 µM],
CC(C)N1CCN(Cc2cccn2-c2ccccn2)CC1CCO (configuration not stated),,"inconclusive: 44.7 µM [inhibitor, partial curve, poor fit]"
Cc1ccccc1OCC(=O)Nc1ccc(C(=O)Nc2ccccc2C(=O)O)cc1,inactive: 14.3% [at 102 µM],
NS(=O)(=O)c1ccc(CNC(=O)c2cc(-c3cccs3)nc3ccccc23)cc1,inconclusive: -59.4% [inhibitor],
CCN1C(=O)/C(=C\C=C\c2ccccc2[N+](=O)[O-])SC1=S,,active: 10 µM
O=C(Cc1ccc(Br)cc1)N/N=C/c1ccc(-c2cccc(C(=O)O)c2)o1,,"inconclusive: 79.4 µM [inhibitor, single point]"
Cc1ccc([N+](=O)[O-])cc1NC(=O)c1ccc(CSc2ccccc2)cc1,,"inconclusive: 39.8 µM [inhibitor, partial curve, poor fit]"
Cc1cccc(NC(=O)CN(c2ccc(C(C)C)cc2)S(=O)(=O)c2c(C)nn(C)c2C)c1C,,"inconclusive: 11.2 µM [inhibitor, partial curve, poor fit]"
Cc1noc(C(=O)Nc2ccccc2C(F)(F)F)c1Cl,inactive: -6.29% [at 102 µM],
CC(/C=N/n1c(-c2cccnc2)n[nH]c1=S)=C\c1ccco1,,active: 1.26 µM
Cc1ccc(C)c2c(N)c3c(nc12)CCCCC3 (tested in a mixture with another compound),,active: 44.7 µM
COc1ccc(N2CCN(C(=O)CSc3nnc(-c4cccnc4)n3-c3ccccc3)CC2)cc1,,"inconclusive: 79.4 µM [inhibitor, single point]"
O=C1NC(NS(=O)(=O)c2ccc(Cl)cc2)(C(F)(F)F)C(=O)N1c1ccccc1 (configuration not stated),,"inconclusive: 17.8 µM [inhibitor, single point]"
CCOC(=O)c1c(NC(=O)COC(=O)c2ccc(C)s2)sc2c1CC(C)(C)NC2(C)C,,"inconclusive: 79.4 µM [inhibitor, single point]"
O=C(c1c2c(nc3ccccc13)C(=O)N(C1CCCCC1)C2)N1CCN(c2ccc(F)cc2)CC1,inactive: -3.86%,
CCOC(=O)N1CCN(C(=O)c2ccc3c(c2)N(Cc2ccccc2F)C(=O)c2ccccc2S3=O)CC1 (configuration not stated),inactive: 3.4%,
Cc1nnc(NC(=O)C(c2ccccc2)c2ccccc2)s1,inactive: 14.6% [at 102 µM],
COc1cc(C(=O)NCC(=O)N/N=C/c2ccc(-c3ccc([N+](=O)[O-])cc3)o2)cc(OC)c1OC,,active: 44.7 µM

SMILES,"activity, negative = inhibition",Potency
COc1ccc2cc(CN(Cc3ccco3)C(=S)NCC3CCCO3)c(=O)[nH]c2c1 (configuration not stated),inactive: 19.5% [at 12.7 µM],
Cc1cccc(S(=O)(=O)NCCc2cn3ccccc3n2)c1,inactive: -23.7% [at 102 µM],
CCC1(c2ccccc2)NC(=O)N(CC(=O)Nc2ccc(S(=O)(=O)NC3=NCCCCC3)cc2)C1=O (configuration not stated),,active: 50.1 µM
COc1ccc(C)cc1Nc1nc2c(S(=O)(=O)c3cccc(Cl)c3)nnn2c2ccsc12,inactive: -6.76%,
O=C(O)c1ccc(-n2c(-c3cc(C4CC4)[nH]n3)n[nH]c2=S)cc1,,active: 17.8 µM
Cc1ccc(/C=N/NC(=O)c2nnn(-c3nonc3N)c2CSc2ccc(Cl)cc2)cc1,inactive: 2%,
Cc1ccc(-n2nc3c(N4CCC(C(=O)N5CCN(C)CC5)CC4)nnc(C)c3c2C)cc1,,"inconclusive: 50.1 µM [inhibitor, partial curve, poor fit]"
CCC1Oc2ccccc2N(CC(=O)NCCN2CCc3ccccc3C2)C1=O (configuration not stated),,"inconclusive: 89.1 µM [inhibitor, partial curve, poor fit]"
Cc1ccc(S(=O)(=O)NCC(=O)N(CCc2ccccc2)CC(=O)NCc2ccco2)cc1,,"inconclusive: 8.91 µM [inhibitor, full curve, poor fit]"
CC(C)c1ccc(O)c(NC(=S)NC(=O)c2cccnc2)c1,inactive: -13.7% [at 102 µM],
COc1cc(OC)c(OC)cc1CNC(=O)c1ccc(S(=O)(=O)N2CCCCC2)cc1,inactive: -9.63% [at 12.7 µM],
COc1cccc(=O)c2c(C)n(C)c(C)c12,,active: 15.8 µM
CCOC(=O)C1=C(O)/C(=C/c2ccc(OCC(=O)O)c(OCC)c2)SC1=Nc1ccc(C)cc1,,active: 44.7 µM
COc1ccc(Br)cc1C(=O)Nc1ccc2oc(-c3cccnc3)nc2c1,inactive: -33.2%,
Cn1cccc1C(=O)N1CCC2(CCCN(c3ccccn3)C2)CC1,inactive: 2.71% [at 12.7 µM],
CC(C)C1C(C#N)=C(N)Oc2n[nH]c(-c3ccccc3)c21 (configuration not stated),inactive: -3.87%,
CCOC(=O)c1ccc(NC(=S)NN2CCN(C)CC2)cc1,,"inconclusive: 100 µM [inhibitor, single point]"
Cc1cc(C)n(C(C)CC(=O)NCc2ccccc2C)n1 (configuration not stated),inactive: 6.8%,
CN(C)c1cccc(C(=O)NCC2CCCO2)c1 (configuration not stated),,"inconclusive: 3.16 µM [inhibitor, partial curve, poor fit]"
Cc1ccc(OC(=S)Nc2ccc(O)cc2)cc1,,"inconclusive: 39.8 µM [inhibitor, single point]"
O=C1C2CCC(C2)[C@@H]2CCCCN12 (some centres not stated),inactive: 28.8% [at 135 µM],
Nn1cnnc1SC1CCCCC1NS(=O)(=O)c1ccccc1 (configuration not stated),,"inconclusive: 3.98 µM [inhibitor, single point]"
O=C(N/N=C/c1ccc(F)cc1)c1ccc(-n2cnnn2)cc1,inactive: -38.3% [at 102 µM],
COc1ccc(OCCCC(=O)Nc2nccs2)cc1,,"inconclusive: 39.8 µM [inhibitor, partial curve]"

SMILES,"activity, negative = inhibition",Potency
Cc1cc(=O)[nH]c(SCC(=O)Nc2ccccc2C#N)c1C#N,,"inconclusive: 8.91 µM [inhibitor, partial curve, poor fit]"
CC(=O)Nc1ccc(C2=NN(CC#N)C(=O)SC2)cc1,inactive: 48.4% [at 12.7 µM],
CCN1CCn2c3c(c4cc(C)ccc42)CCCC31 (configuration not stated),,active: 20 µM
CC(C)(C)c1ccc(OCc2ccc(C(=O)N/N=C/c3ccc(O)c(O)c3)cc2)cc1,,"inconclusive: 79.4 µM [inhibitor, partial curve, poor fit]"
COc1ccc(C2CC(=O)Nc3c2c(=O)nc2c(C)cccn32)cc1OC (configuration not stated),inactive: -13.1%,
CCOc1ccccc1C1C(C(N)=O)=C(C)Nc2nc(-c3cccc(C)c3)nn21 (configuration not stated),,"inconclusive: 39.8 µM [inhibitor, single point]"
CCOC(=O)COn1c(=O)c(-c2ccco2)[n+]([O-])c2ccccc21,,active: 10 µM
CCOC(=O)c1c(C)[nH]c(C)c1C(=O)COC(=O)c1ccc(Cl)c(S(=O)(=O)NCc2ccccc2)c1,,"inconclusive: 25.1 µM [inhibitor, single point]"
COc1ccc(Cl)cc1-n1c(C)cc(C(=O)OCC(=O)N2CC(=O)Nc3ccccc32)c1C,,"inconclusive: 25.1 µM [inhibitor, single point]"
Cc1ccc(C(C)(O)CS(=O)(=O)Cc2ccccc2Cl)cc1 (configuration not stated),,active: 44.7 µM
COc1cc([N+](=O)[O-])cc2cc(C(=O)N3CCCC3)c(=O)oc12,,"inconclusive: 44.7 µM [inhibitor, partial curve, poor fit]"
CC(=O)c1cccc(OCc2cc(C(=O)N(C)CCC3CCOCC3)no2)c1,,active: 44.7 µM
CCC(c1nnnn1Cc1ccco1)N(Cc1cc2cc(C)cc(C)c2[nH]c1=O)CC1CCCO1 (configuration not stated),inconclusive: -95.6% [inhibitor],
Cc1ccc2c(CN3CCN(Cc4ccccc4Cl)CC3)cc(=O)oc2c1,,"inconclusive: 11.2 µM [inhibitor, partial curve]"
c1ccc2c(c1)Cn1nc(Cc3nc4c(s3)CCCC4)nc1-2,,"inconclusive: 56.2 µM [inhibitor, partial curve, poor fit]"
O=C(OCC(=O)c1ccc(Cl)cc1Cl)c1cnccn1,inactive: -38.8% [at 102 µM],
CC(C)(C)c1ccccc1OCCOCCNCc1ccccc1,,active: 14.1 µM
COc1ccc(C(CNC(=O)c2ccc(C)c(S(=O)(=O)Nc3ccccc3OC)c2)N2CCCC2)cc1 (configuration not stated),,"inconclusive: 79.4 µM [inhibitor, single point]"
CC(=O)OCC1=C(C(=O)O)N2C(=O)C(NC(=O)C(C)Cn3nc(C)c(Cl)c3C)C2SC1 (configuration not stated),,active: 39.8 µM
O=C(COc1ccc(F)cc1Cl)Nc1nc(-c2ccccn2)cs1,,"inconclusive: 0.891 µM [inhibitor, full curve, poor fit]"
O=C1CCCc2c1cc(-c1ccccc1)n2-c1ccc(O)cc1,inactive: 4.48% [at 102 µM],
CCOC(=O)c1c(NC(=O)COc2cccc(C(F)(F)F)c2)sc2c1CCC(C)C2 (configuration not stated),,active: 10 µM
O=c1cc(-c2ccccc2)c2ccccc2[nH]1,,"inconclusive: 89.1 µM [inhibitor, single point]"
COc1ccc(NC(=O)c2ccc(CN3C(=O)CCn4nc(C)cc43)cc2)c(OC)c1,,"inconclusive: 5.01 µM [inhibitor, partial curve, poor fit]"
